Measured values published in the CheMixHub viscosity set.

| Structure (SMILES) | viscosity (298.15 K, 101 kPa) | viscosity (303.15 K, 101 kPa) | viscosity (308.15 K, 101 kPa) | viscosity (308.15 K, 101.33 kPa) | viscosity (313.15 K, 101 kPa) | viscosity (318.15 K, 101 kPa) | viscosity (303.15 K, 100 kPa) | viscosity (308.15 K, 100 kPa) | viscosity (313.15 K, 100 kPa) | viscosity (318.15 K, 100 kPa) |
| --- | --- | --- | --- | --- | --- | --- | --- | --- | --- | --- |
| COCCO | 1.722 ± 0.14 mPa·s [study A] and 1.562 ± 0.012 mPa·s [study B] and 1.547 ± 0.037 mPa·s [study C] and 1.551 ± 0.033 mPa·s [study D] | 1.573 ± 0.064 mPa·s [study A] and 1.43 ± 0.02 mPa·s [study B] and 1.968 ± 0.036 mPa·s [study C] and 1.968 ± 0.5 mPa·s [study D] | 1.492 ± 0.035 mPa·s [study A] and 1.39 ± 0.12 mPa·s [study B] and 1.229 ± 0.016 mPa·s [study C] and 1.392 ± 0.057 mPa·s [study D] and 1.275 ± 0.009 mPa·s [study E] and 1.49 ± 0.15 mPa·s [study F] | 1.189 ± 0.058 mPa·s [study A] and 1.189 ± 0.01 mPa·s [study B] and 1.326 ± 0.01 mPa·s [study C] and 1.315 ± 0.01 mPa·s [study D] | 1.219 ± 0.029 mPa·s [study A] and 1.226 ± 0.05 mPa·s [study B] and 1.148 ± 0.069 mPa·s [study C] and 1.25 ± 0.03 mPa·s [study D] and 1.098 ± 0.011 mPa·s [study E] and 1.18 ± 0.02 mPa·s [study F] and 1.218 ± 0.12 mPa·s [study G] | 1.031 ± 0.017 mPa·s [study A] and 1.129 ± 0.027 mPa·s [study B] and 1.095 ± 0.045 mPa·s [study C] and 1.04 ± 0.063 mPa·s [study D] and 1.071 ± 0.008 mPa·s [study E] and 1.027 ± 0.1 mPa·s [study F] and 1.128 ± 0.11 mPa·s [study G] | – | – | – | – |
| CCCC(=O)O | 1.529 ± 0.04 mPa·s [study A] and 1.502 ± 0.04 mPa·s [study B] and 1.466 ± 0.038 mPa·s [study C] and 1.469 ± 0.014 mPa·s [study D] and 1.528 ± 0.046 mPa·s [study E] and 1.811 ± 0.014 mPa·s [study F] and 1.528 ± 0.14 mPa·s [study G] | – | 1.295 ± 0.034 mPa·s [study A] and 1.27 ± 0.034 mPa·s [study B] and 1.242 ± 0.039 mPa·s [study C] and 1.457 ± 0.011 mPa·s [study D] and 1.242 ± 0.12 mPa·s [study E] | – | – | 1.078 ± 0.029 mPa·s [study A] and 0.9562 ± 0.033 mPa·s [study B] and 1.103 ± 0.0087 mPa·s [study C] and 0.9562 ± 0.095 mPa·s [study D] | 1.385 mPa·s [study A] and 1.386 ± 0.056 mPa·s [study B] and 1.39 ± 0.04 mPa·s [study C] | 1.242 mPa·s [study A] and 1.243 ± 0.051 mPa·s [study B] and 1.24 ± 0.04 mPa·s [study C] | 1.099 mPa·s [study A] and 1.099 ± 0.045 mPa·s [study B] and 1.1 ± 0.03 mPa·s [study C] | 0.9562 mPa·s [study A] and 0.956 ± 0.039 mPa·s [study B] and 0.96 ± 0.03 mPa·s [study C] |

± gives the uncertainty stated by the source. Some entries of the source have several records that differ or are many. This list holds those alone. An entry can have further records. Results that share an entry are repeats across runs, samples, wells, individuals or studies. Records carry a tag for their origin. Letters hold for one entry only.
